Reference: PubChem BioAssay AID720542 (National Center for Advancing Translational Sciences (NCATS), 2013)
Hit rate of the full screen: of about 360,000 compounds, about 740 (0.21%) were called active. This list was built around the results that the source calls inconclusive (neither active nor inactive); the mix of calls is not that of the screen. The call rests on the fitted dose curve; in most records, active means well fitted inhibition curve with a large enough effect; inconclusive means small, poorly fitted or top-dose-only effect; inactive means no such curve, though single readings can be large or run the other way. No potency is given beside an inconclusive call; the fits are too rough.

Tested on: Plasmodium falciparum AMA1 (3D7) - RON2 peptide interaction
Experiment: qHTS for Inhibitors of AMA1-RON; Towards Development of Antimalarial Drug Lead: Primary Screen; further: nearly all actives have a fitted effect of over 45% in size
Conditions: AlphaScreen AMA1-biotinylated RON2 peptide binding; series mostly up to 58.2 µM
Method in brief: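 AMA1 (3D7) with his tag at 25 nM final met compounds first, then biotinylated RON2 peptide at 25 nM; detection used donor plus acceptor beads, 10 µg/mL apiece, read by AlphaScreen after 30 min at room temperature.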
Potency means the concentration at half of the fitted maximal effect; tags describe the fitted curve by direction and shape.

Structure (SMILES)	Potency
COc1ccc(CN2C(=O)NC(=O)/C(=C\c3ccco3)C2=O)cc1	inconclusive [inhibitor, single point]
COc1ccc(S(=O)(=O)Nc2cc(SCC(=O)O)c(O)c3ccccc23)cc1	inconclusive [inhibitor, single point]
NC(=O)C1CC(=O)N(c2ccc(OCC(=O)Nc3ccc(F)cc3)cc2)C1 (stereo not drawn)	inactive
COc1ccc(C2C3=C(CC(C)(C)CC3=O)Oc3ncn(Cc4ccccc4)c(=N)c32)cc1 (stereo not drawn)	inconclusive [inhibitor, partial curve]
O=C(Nc1ccccc1N1CCN(C(=O)c2ccc(Cl)cc2)CC1)c1ccc([N+](=O)[O-])o1	inconclusive [inhibitor, single point]
O=C(c1ccccc1)c1ccc(N2CCN(C(=O)c3ccc(F)cc3F)CC2)c(F)c1	inactive
COc1ccc(N2CCN(C(=O)c3ccc(N(C)S(=O)(=O)c4ccc(C)cc4)cc3)CC2)cc1	inconclusive [inhibitor, partial curve]
O=C(O)c1cnn(-c2nc(-c3ccc(Cl)cc3)cs2)c1C(F)(F)F	inactive
CN(C)c1ccc2nc3ccc(=O)cc-3sc2c1	inconclusive [inhibitor, partial curve]
COC(=O)c1ccc(/C=N/OCC(=O)NC2CCCC(C)C2C)cc1 (stereo not drawn)	inconclusive [inhibitor, single point]
O=C1/C(=C\c2cccnc2)N2CCC1CC2	inconclusive [inhibitor, partial curve]
CC(C)(C)c1cnnn1-c1ccc(C=O)cc1	inactive
O=C1CCC/C(=N/Nc2ccc(Cl)cc2)C1	inactive
CCOc1ccc(N2C=Nc3ccc(OCC)cc3C2)cc1	inactive
CN(C)c1ccc(-c2cccc3nccn23)cc1	inconclusive [inhibitor, partial curve]
COC(=O)c1ccc(OCC(O)CN2CCc3cc(OC)c(OC)cc3C2c2ccccc2)cc1 (stereo not drawn)	inconclusive [inhibitor, partial curve]
CN(C)c1ccc(N=Nc2ccccc2C(=O)OCC(=O)Nc2ccccc2C(F)(F)F)cc1	active: 14.1 µM
O=C(COc1ccc(Cl)cc1Cl)N1CCCC1	inactive
COc1ccc(NC(=O)c2cc([N+](=O)[O-])ccc2N2CCCCC2)cc1OC	inconclusive [inhibitor, single point]
c1cncc(CNC2CCCc3ccccc32)c1 (stereo not drawn)	inconclusive [inhibitor, single point]
O=C(OCC(=O)N1CCCc2ccccc21)c1ccccc1NCCO	inactive
CCOC(=O)C1(Cc2ccccc2)CCN(Cc2cc(OC)c3c(c2)OCO3)CC1	inconclusive [inhibitor, partial curve]
CCCCCCn1c(N2CCN(c3ccccc3)CC2)nc2c1c(=O)n(C)c(=O)n2C	inconclusive [inhibitor, partial curve]

Structure (SMILES)	Potency
CN1CCN(c2nc(-c3ccccc3)nc(-c3ccc(F)cc3)c2C#N)CC1	inconclusive [inhibitor, single point]
CC1CC(=O)c2c(cc3c(-c4c(O)cc(O)c5c(O)c6c(cc45)OC(C)CC6=O)c(O)cc(O)c3c2O)O1 (stereo not drawn)	inconclusive [inhibitor, full curve, poor fit]
CC1=NN(c2ccccc2)C(=O)/C1=C/c1cn(C)c2ccccc12	inconclusive [inhibitor, full curve]
COc1ccc(C)cc1NCC(=O)Nc1ccc(C(C)(C)C)cc1	inconclusive [inhibitor, single point]
CCOC(=O)c1ccc(NC(=O)c2ncn3c2C(=O)N[C@H](C)C3)cc1	inactive
O=C(c1ccco1)N(CCC(c1ccccc1)c1ccco1)Cc1ccccc1 (stereo not drawn)	inconclusive [inhibitor, single point]
CCN(CC)c1ccc(C=C2C(=O)OC3(CCCCC3)OC2=O)cc1	inconclusive [inhibitor, partial curve, poor fit]
Cc1ccc2c(c1)C(=O)C(=O)N2CCCOc1ccccc1C	inconclusive [inhibitor, single point]
Oc1ccccc1N=Cc1c(O)ccc2ccccc12	inactive
CCOc1ccc(C(=O)NC2CCN(S(=O)(=O)c3ccccc3)CC2)cc1	inconclusive [inhibitor, partial curve]
CC1=C(C(=O)N2CCOCC2)CC(CC(=O)NCCCCc2ccccc2)C(=O)N1CCC1=CCCCC1 (stereo not drawn)	inactive
CC[C@]12c3[nH]c4ccc(OC)cc4c3CCN1C(=O)C(CC(=O)NCC13CC4CC(CC(C4)C1)C3)C[C@@H]2C(=O)N1CCN(C(=O)c2ccco2)CC1 (stereo partly drawn)	inconclusive [inhibitor, single point]
Nc1ccc2c(c1)Cc1ccccc1-2	inconclusive [inhibitor, partial curve]
Cc1noc(C)c1COc1ccc(C(=O)NNC(=O)c2ccccc2O)cc1	inactive
CC1(C)CNc2cc(N)ccc2S1	inconclusive [inhibitor, partial curve]
Cn1c(-c2ccccc2)cnc1NCc1cccc([N+](=O)[O-])c1	inconclusive [inhibitor, partial curve]
COc1cccc(C(=O)Oc2cc3c4c(c2)C(C)=CC(C)(C)N4C(=O)C3=O)c1	inconclusive [inhibitor, partial curve]
Cc1ccc(CN2CCN(/N=C/c3ccc(C)s3)CC2)c(C)c1	inconclusive [inhibitor, single point]
COc1cccc(/C=N/N2CCN(Cc3ccccc3)CC2)c1O	inconclusive [inhibitor, partial curve]
O=C(/C=C/c1ccccc1)c1ccc2c3c(cccc13)CC2	inconclusive [inhibitor, partial curve, poor fit]
COc1ccc(O)c(CN2CCCC(C(=O)c3ccccc3SC)C2)c1 (stereo not drawn)	inconclusive [inhibitor, partial curve]
Cc1nnc(SC(C)C(=O)Nc2ncc(Cl)cc2Cl)n1Cc1ccccc1 (stereo not drawn)	inconclusive [inhibitor, partial curve]
O=[N+]([O-])c1nn(-c2ccc3c(c2)OCCO3)n(O)c1=NC1CCCCCC1	inconclusive [inhibitor, partial curve]

Structure (SMILES)	Potency
O=[N+]([O-])c1ccccc1Nc1cccc(F)c1	inconclusive [inhibitor, partial curve]
Fc1ccc(CNc2ccc(N3CCN(Cc4ccccc4)CC3)cc2)cc1	inconclusive [inhibitor, single point]
CN1CCN(c2ccc(S(=O)(=O)N3CCOCC3)cc2NC(=O)CSCc2ccccc2)CC1	inactive
Clc1ccc(CN2CCSCC2)cc1Cl	inconclusive [inhibitor, single point]
CCOc1cccc(N2C(=O)/C(=C/c3ccco3)C(=O)NC2=S)c1	inconclusive [inhibitor, partial curve]
O=c1nc2s/c(=C\c3ccco3)c(=O)n2nc1Cc1ccccc1	inconclusive [inhibitor, single point]
Nc1ccn([C@@H]2O[C@H](C(=O)N3CCCN(Cc4ccccc4F)CC3)[C@@H](O)[C@H]2O)c(=O)n1	inactive
O=C1Nc2ccc(Br)cc2/C1=N\N=C\C1=C(N2CCOCC2)C(=C/c2ccccc2)/CC1	inconclusive [inhibitor, single point]
COc1ccc(N2CCN(C(=O)C(=O)c3cc(OC)c4ccccc4c3)CC2)cc1	inconclusive [inhibitor, single point]
C[C@@H]1CCCCO[C@H](CN(C)Cc2ccc(Cl)c(Cl)c2)[C@@H](C)CN([C@H](C)CO)C(=O)c2cc(N(C)C)ccc2O1	inconclusive [inhibitor, single point]
Cn1c(-c2ccc(F)cc2)cnc1NCc1ccccc1F	inconclusive [inhibitor, partial curve]
CN(Cc1cn(C)nc1-c1cccc(Cl)c1)C1CCOCC1	inactive
COc1ccc(C(=O)Nc2cc3c4c(c2)C(C)C(=O)N4CCC3)cc1 (stereo not drawn)	inconclusive [inhibitor, full curve, poor fit]
CCn1cc(C2=NOC(C(=O)Nc3ccc4c(c3)OCO4)C2)c(C)n1 (stereo not drawn)	inactive
NC(N)=Nc1ccc(N=C(N)N)cc1	inactive
O=C(NCC(c1ccco1)N1CCc2ccccc21)C(=O)Nc1ccccc1F (stereo not drawn)	inconclusive [inhibitor, single point]
CC(C)C(=O)N=C1SC2CS(=O)(=O)CC2N1Cc1ccccc1 (stereo not drawn)	inconclusive [inhibitor, full curve]
CCOC(=O)CSc1nc2c(sc3ccc([N+](=O)[O-])cc32)c(=O)n1Cc1ccco1	inactive
O=c1c2c([nH]c3ccccc13)C(=C1CCCC1)CC2	inconclusive [inhibitor, single point]
CCCOc1ccc(OCCNC2CCCC2)cc1	inconclusive [inhibitor, partial curve]
CC(C)(O)C#Cc1ccc(CN2CCN(C3CCCCC3)C(CCO)C2)s1 (stereo not drawn)	inconclusive [inhibitor, single point]
Cc1ccc(S(=O)(=O)N2CCN(c3ccccc3)CC2)cc1C(=O)NC1CCCCC1	inactive
